For three molecules, binding results are on record in article PMC10411901, “FIRRM cooperates with FIGNL1 to promote RAD51 disassembly during DNA repair” (Science Advances, 2023).

The chains behind the UniProt entries cited, without tags or fusion partners.
UniProt Q06609: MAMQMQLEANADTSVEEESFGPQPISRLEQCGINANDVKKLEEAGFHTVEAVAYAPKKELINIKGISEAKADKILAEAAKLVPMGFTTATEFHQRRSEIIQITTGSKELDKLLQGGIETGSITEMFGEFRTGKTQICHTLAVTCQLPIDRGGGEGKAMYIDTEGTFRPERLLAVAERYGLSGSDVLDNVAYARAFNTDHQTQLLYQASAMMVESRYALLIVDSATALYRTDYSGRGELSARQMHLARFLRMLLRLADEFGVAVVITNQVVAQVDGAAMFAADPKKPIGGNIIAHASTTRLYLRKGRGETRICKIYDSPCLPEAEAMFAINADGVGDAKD

In assay [1] the target is T1, mCherry-LacRnls-FIGNL1 (human) (UniProt Q6PIW4).
T1 sequence: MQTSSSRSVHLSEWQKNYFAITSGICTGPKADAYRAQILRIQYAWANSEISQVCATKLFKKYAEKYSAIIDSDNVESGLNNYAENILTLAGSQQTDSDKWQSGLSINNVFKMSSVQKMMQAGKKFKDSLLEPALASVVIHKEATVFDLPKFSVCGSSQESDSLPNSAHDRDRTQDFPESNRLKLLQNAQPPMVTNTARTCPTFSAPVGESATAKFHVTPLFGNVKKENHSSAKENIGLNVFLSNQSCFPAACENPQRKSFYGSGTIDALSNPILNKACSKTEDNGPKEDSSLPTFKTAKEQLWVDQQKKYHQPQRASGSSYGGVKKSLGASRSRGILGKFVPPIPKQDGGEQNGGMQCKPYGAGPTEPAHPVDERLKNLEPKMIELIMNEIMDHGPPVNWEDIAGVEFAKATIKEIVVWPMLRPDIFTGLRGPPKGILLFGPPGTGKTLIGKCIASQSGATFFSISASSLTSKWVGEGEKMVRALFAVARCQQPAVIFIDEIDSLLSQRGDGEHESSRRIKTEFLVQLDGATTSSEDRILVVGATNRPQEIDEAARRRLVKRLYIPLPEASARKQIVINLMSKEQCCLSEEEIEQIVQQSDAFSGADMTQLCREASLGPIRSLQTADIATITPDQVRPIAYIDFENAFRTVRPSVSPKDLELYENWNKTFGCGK
Put plainly: LacO/LacR tethering assay (recruitment to a LacO array in cells); mCherry-LacRnls-FIRRM or -FIGNL1 transfected in U2OS 2-6-5 cells and processed for RAD51 immunofluorescence at the LacO array.

The target in assay [2] is T1, mCherry-LacRnls-FIGNL1 (human). As to the kind of experiment: LacO/LacR tethering assay (recruitment to a LacO array in cells); mCherry-LacRnls-bait transiently transfected and held at the LacO array of U2OS 2-6-5 cells; colocalization of the GFP-tagged prey at the mCherry locus quantified; FOK1 nuclease not expressed.
Assay [3] deals with T2, 3xFLAG-FIRRM FL (human) (UniProt Q9NSG2).
T2 sequence: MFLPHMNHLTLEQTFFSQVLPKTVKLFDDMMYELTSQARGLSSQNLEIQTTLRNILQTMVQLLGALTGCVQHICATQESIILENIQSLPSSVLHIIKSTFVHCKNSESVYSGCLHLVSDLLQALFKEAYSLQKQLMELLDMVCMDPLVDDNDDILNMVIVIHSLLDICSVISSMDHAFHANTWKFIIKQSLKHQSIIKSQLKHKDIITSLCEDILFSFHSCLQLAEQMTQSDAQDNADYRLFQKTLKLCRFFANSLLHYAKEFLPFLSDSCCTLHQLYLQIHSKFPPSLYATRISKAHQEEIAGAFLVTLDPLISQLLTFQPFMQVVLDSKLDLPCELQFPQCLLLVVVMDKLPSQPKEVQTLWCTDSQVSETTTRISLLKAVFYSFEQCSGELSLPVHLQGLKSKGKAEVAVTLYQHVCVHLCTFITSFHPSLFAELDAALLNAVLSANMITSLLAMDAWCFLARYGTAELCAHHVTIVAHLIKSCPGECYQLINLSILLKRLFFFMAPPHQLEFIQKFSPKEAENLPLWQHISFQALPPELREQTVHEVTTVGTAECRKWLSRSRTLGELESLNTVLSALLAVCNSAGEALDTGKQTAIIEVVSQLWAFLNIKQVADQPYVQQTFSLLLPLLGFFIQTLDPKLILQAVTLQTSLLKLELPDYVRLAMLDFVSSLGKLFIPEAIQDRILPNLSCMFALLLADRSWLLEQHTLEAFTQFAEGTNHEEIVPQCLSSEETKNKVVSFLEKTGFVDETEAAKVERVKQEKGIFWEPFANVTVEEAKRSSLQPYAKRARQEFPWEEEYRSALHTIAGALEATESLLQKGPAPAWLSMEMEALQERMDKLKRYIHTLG
Put plainly: co-IP; FLAG IP from U2OS cells depleted for FIGNL1 (siRNA) and transfected for 24 hours; high-salt buffer (300 mM NaCl, 50 mM tris-HCl, 1 mM EDTA, 1% Triton X-100); immunoblot. Background: In western blotting, separated proteins are transferred to a membrane and probed.

No constants are given. Whether binding was seen depends on the method and setting. For part of these data: Binding seen in cells or lysates may run through a third protein. Some entries that bind do so weakly or less than the wild type. For part of these data: Tags and fused reporters may be left off the sequences shown.

In the case of “endogenous RAD51 (from UniProt Q06609 1-339)”, the binding result in assay [1] is “binds”.

B1: GFP-FIRRM amino acids 1 to 735 (domain or fragment, UniProt Q9NSG2 1-735)
chain: MFLPHMNHLTLEQTFFSQVLPKTVKLFDDMMYELTSQARGLSSQNLEIQTTLRNILQTMVQLLGALTGCVQHICATQESIILENIQSLPSSVLHIIKSTFVHCKNSESVYSGCLHLVSDLLQALFKEAYSLQKQLMELLDMVCMDPLVDDNDDILNMVIVIHSLLDICSVISSMDHAFHANTWKFIIKQSLKHQSIIKSQLKHKDIITSLCEDILFSFHSCLQLAEQMTQSDAQDNADYRLFQKTLKLCRFFANSLLHYAKEFLPFLSDSCCTLHQLYLQIHSKFPPSLYATRISKAHQEEIAGAFLVTLDPLISQLLTFQPFMQVVLDSKLDLPCELQFPQCLLLVVVMDKLPSQPKEVQTLWCTDSQVSETTTRISLLKAVFYSFEQCSGELSLPVHLQGLKSKGKAEVAVTLYQHVCVHLCTFITSFHPSLFAELDAALLNAVLSANMITSLLAMDAWCFLARYGTAELCAHHVTIVAHLIKSCPGECYQLINLSILLKRLFFFMAPPHQLEFIQKFSPKEAENLPLWQHISFQALPPELREQTVHEVTTVGTAECRKWLSRSRTLGELESLNTVLSALLAVCNSAGEALDTGKQTAIIEVVSQLWAFLNIKQVADQPYVQQTFSLLLPLLGFFIQTLDPKLILQAVTLQTSLLKLELPDYVRLAMLDFVSSLGKLFIPEAIQDRILPNLSCMFALLLADRSWLLEQHTLEAFTQFAEGTNHEEIVPQCLSS
Consider B1, for which, in assay [2], the binding result is reported as “binds”.

B2: mCherry-LacRnls-FIGNL1 (protein, UniProt Q6PIW4 1-674)
chain: MQTSSSRSVHLSEWQKNYFAITSGICTGPKADAYRAQILRIQYAWANSEISQVCATKLFKKYAEKYSAIIDSDNVESGLNNYAENILTLAGSQQTDSDKWQSGLSINNVFKMSSVQKMMQAGKKFKDSLLEPALASVVIHKEATVFDLPKFSVCGSSQESDSLPNSAHDRDRTQDFPESNRLKLLQNAQPPMVTNTARTCPTFSAPVGESATAKFHVTPLFGNVKKENHSSAKENIGLNVFLSNQSCFPAACENPQRKSFYGSGTIDALSNPILNKACSKTEDNGPKEDSSLPTFKTAKEQLWVDQQKKYHQPQRASGSSYGGVKKSLGASRSRGILGKFVPPIPKQDGGEQNGGMQCKPYGAGPTEPAHPVDERLKNLEPKMIELIMNEIMDHGPPVNWEDIAGVEFAKATIKEIVVWPMLRPDIFTGLRGPPKGILLFGPPGTGKTLIGKCIASQSGATFFSISASSLTSKWVGEGEKMVRALFAVARCQQPAVIFIDEIDSLLSQRGDGEHESSRRIKTEFLVQLDGATTSSEDRILVVGATNRPQEIDEAARRRLVKRLYIPLPEASARKQIVINLMSKEQCCLSEEEIEQIVQQSDAFSGADMTQLCREASLGPIRSLQTADIATITPDQVRPIAYIDFENAFRTVRPSVSPKDLELYENWNKTFGCGK
As to B2, the binding entry in assay [3] is “binds”.
